Results on 31 molecules are retold here after article PMC9911399, “Two distinct binding modes provide the RNA-binding protein RbFox with extraordinary sequence specificity”.

To fix the notation:
T1: RBFOX1 RRM RbFoxmut (Fox-RRM*) (Homo sapiens, UniProt Q9NWB1 109-208, R118D;E147R;N151S;E152T)
T1 sequence: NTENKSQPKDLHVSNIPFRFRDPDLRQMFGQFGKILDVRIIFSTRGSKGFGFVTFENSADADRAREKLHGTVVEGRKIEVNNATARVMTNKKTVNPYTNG

B1: CAUGCGU (DNA:RNA)
RNA: GGGAGACCGGAAUUCAGAUUGUCCCAUGCGUUUAAAUCCCGUCGUAGCCACCA
DNA 1: CAATCTGAATTCCGGTCTCCC
DNA 2: TGGTGGCTACGACGGGATT
B2: GACCGAU (DNA:RNA)
RNA: B1 RNA with C25G, U27C, G28C, C29G, G30A
DNA 1: CAATCTGAATTCCGGTCTCCC
DNA 2: TGGTGGCTACGACGGGATT
B3: UUGGAAU (DNA:RNA)
RNA: B1 RNA with C25U, A26U, U27G, C29A, G30A
DNA 1: CAATCTGAATTCCGGTCTCCC
DNA 2: TGGTGGCTACGACGGGATT
B4: CAGCUCU (DNA:RNA)
RNA: B1 RNA with U27G, G28C, C29U, G30C
DNA 1: CAATCTGAATTCCGGTCTCCC
DNA 2: TGGTGGCTACGACGGGATT
B5: AUAAGGA (DNA:RNA)
RNA: B1 RNA with C25A, A26U, U27A, G28A, C29G, U31A
DNA 1: CAATCTGAATTCCGGTCTCCC
DNA 2: TGGTGGCTACGACGGGATT
B6: UUAUGCG (DNA:RNA)
RNA: GGGAGACCGGAAUUCAGAUUGUCCUUAUGCGUUAAAUCCCGUCGUAGCCACCA
DNA 1: CAATCTGAATTCCGGTCTCCC
DNA 2: TGGTGGCTACGACGGGATT
B7: AAGAUCU (DNA:RNA)
RNA: B1 RNA with C25A, U27G, G28A, C29U, G30C
DNA 1: CAATCTGAATTCCGGTCTCCC
DNA 2: TGGTGGCTACGACGGGATT
B8: AGGUUCG (DNA:RNA)
RNA: B6 RNA with U25A, U26G, A27G, G29U
DNA 1: CAATCTGAATTCCGGTCTCCC
DNA 2: TGGTGGCTACGACGGGATT
B9: UAUCCUU (DNA:RNA)
RNA: B1 RNA with C25U, G28C, G30U
DNA 1: CAATCTGAATTCCGGTCTCCC
DNA 2: TGGTGGCTACGACGGGATT
B10: AGGCGGC (DNA:RNA)
RNA: B1 RNA with C25A, A26G, U27G, G28C, C29G, U31C
DNA 1: CAATCTGAATTCCGGTCTCCC
DNA 2: TGGTGGCTACGACGGGATT
B11: UCUCCUA (DNA:RNA)
RNA: B1 RNA with C25U, A26C, G28C, G30U, U31A
DNA 1: CAATCTGAATTCCGGTCTCCC
DNA 2: TGGTGGCTACGACGGGATT
B12: CUAGAAG (DNA:RNA)
RNA: B6 RNA with U25C, U28G, G29A, C30A
DNA 1: CAATCTGAATTCCGGTCTCCC
DNA 2: TGGTGGCTACGACGGGATT
B13: GGGAGCG (DNA:RNA)
RNA: B6 RNA with U25G, U26G, A27G, U28A
DNA 1: CAATCTGAATTCCGGTCTCCC
DNA 2: TGGTGGCTACGACGGGATT
B14: UCUCACU (DNA:RNA)
RNA: B1 RNA with C25U, A26C, G28C, C29A, G30C
DNA 1: CAATCTGAATTCCGGTCTCCC
DNA 2: TGGTGGCTACGACGGGATT
B15: UAAUCUG (DNA:RNA)
RNA: B6 RNA with U26A, G29C, C30U
DNA 1: CAATCTGAATTCCGGTCTCCC
DNA 2: TGGTGGCTACGACGGGATT
B16: CGAGAGU (DNA:RNA)
RNA: B1 RNA with A26G, U27A, C29A
DNA 1: CAATCTGAATTCCGGTCTCCC
DNA 2: TGGTGGCTACGACGGGATT
B17: UGGUAUU (DNA:RNA)
RNA: B6 RNA with U26G, A27G, G29A, C30U, G31U
DNA 1: CAATCTGAATTCCGGTCTCCC
DNA 2: TGGTGGCTACGACGGGATT
B18: CAAAGAU (DNA:RNA)
RNA: B1 RNA with U27A, G28A, C29G, G30A
DNA 1: CAATCTGAATTCCGGTCTCCC
DNA 2: TGGTGGCTACGACGGGATT
B19: CAGACCG (DNA:RNA)
RNA: B1 RNA with U27G, G28A, G30C, U31G
DNA 1: CAATCTGAATTCCGGTCTCCC
DNA 2: TGGTGGCTACGACGGGATT
B20: GCAGCCU (DNA:RNA)
RNA: B1 RNA with C25G, A26C, U27A, G30C
DNA 1: CAATCTGAATTCCGGTCTCCC
DNA 2: TGGTGGCTACGACGGGATT
B21: UGAGCCC (DNA:RNA)
RNA: B6 RNA with U26G, U28G, G29C, G31C
DNA 1: CAATCTGAATTCCGGTCTCCC
DNA 2: TGGTGGCTACGACGGGATT
B22: AACGGCG (DNA:RNA)
RNA: B6 RNA with U25A, U26A, A27C, U28G
DNA 1: CAATCTGAATTCCGGTCTCCC
DNA 2: TGGTGGCTACGACGGGATT
B23: AAGAAUA (DNA:RNA)
RNA: B1 RNA with C25A, U27G, G28A, C29A, G30U, U31A
DNA 1: CAATCTGAATTCCGGTCTCCC
DNA 2: TGGTGGCTACGACGGGATT
B24: ACUUGUC (DNA:RNA)
RNA: B6 RNA with U25A, U26C, A27U, C30U, G31C
DNA 1: CAATCTGAATTCCGGTCTCCC
DNA 2: TGGTGGCTACGACGGGATT
B25: AGCAGAA (DNA:RNA)
RNA: B6 RNA with U25A, U26G, A27C, U28A, C30A, G31A
DNA 1: CAATCTGAATTCCGGTCTCCC
DNA 2: TGGTGGCTACGACGGGATT
B26: GACUCCU (DNA:RNA)
RNA: B1 RNA with C25G, U27C, G28U, G30C
DNA 1: CAATCTGAATTCCGGTCTCCC
DNA 2: TGGTGGCTACGACGGGATT
B27: AAUUCAU (DNA:RNA)
RNA: B1 RNA with C25A, G28U, G30A
DNA 1: CAATCTGAATTCCGGTCTCCC
DNA 2: TGGTGGCTACGACGGGATT
B28: CUGUCUA (DNA:RNA)
RNA: B1 RNA with A26U, U27G, G28U, G30U, U31A
DNA 1: CAATCTGAATTCCGGTCTCCC
DNA 2: TGGTGGCTACGACGGGATT
B29: UAGUGAG (DNA:RNA)
RNA: B6 RNA with U26A, A27G, C30A
DNA 1: CAATCTGAATTCCGGTCTCCC
DNA 2: TGGTGGCTACGACGGGATT
B30: AGAGCUC (DNA:RNA)
RNA: B1 RNA with C25A, A26G, U27A, G30U, U31C
DNA 1: CAATCTGAATTCCGGTCTCCC
DNA 2: TGGTGGCTACGACGGGATT
B31: GGCAAAC (DNA:RNA)
RNA: GGGAGACCGGAAUUCAGAUUGUCCGGCAAACUUAAAUCCCGUCGUAGCCACCA
DNA 1: CAATCTGAATTCCGGTCTCCC
DNA 2: TGGTGGCTACGACGGGATT

Where a chain is given by its changes, count along the chain named. The list shows a part of the results.

The target of this experiment is T1, RBFOX1 RRM RbFoxmut (Fox-RRM*). The experiment is described as follows: EMSA; HiTS-Eq, 1 nM pool, 10 min; buffer printed only for the single-RNA assays: 10 mM Tris pH 7.5, 150 mM NaCl, 3.4 mM EDTA, 0.001% NP-40, 30 C. Particulars: tags: His6 N-terminal (pET28a); label: 5' 32P. The gist of the method:
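A pool of RNA with 7 randomized nucleotides, 5′-radiolabelled and with DNA-annealed flanks, was equilibrated at 1 nM for 10 min in 50 µL with purified RbFox RRM, wild type or mutant, across increasing protein concentrations. Free RNA was separated by 8% native PAGE, excised, reverse-transcribed, barcoded by PCR and sequenced. Relative association constants were obtained from read-count changes of each RNA species versus the control reaction and normalised to the cognate motif.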
B1: the binding signal is 0.143 KA relative to UGCAUGU.

With B2, the binding signal is 0.0842 KA relative to UGCAUGU.

As for B3, the binding signal is 0.135 KA relative to UGCAUGU.

For the molecule B4, the binding signal was 0.0953 KA relative to UGCAUGU.

As to B5, the binding signal was 0.0484 KA relative to UGCAUGU.

Consider B6, for which the binding signal was 0.13 KA relative to UGCAUGU.

In the case of B7, the binding signal was 0.0643 KA relative to UGCAUGU.

For the molecule B8, the binding signal is 0.357 KA relative to UGCAUGU.

Consider B9, for which the binding signal is 0.0808 KA relative to UGCAUGU.

Take B10: the binding signal is 0.114 KA relative to UGCAUGU.

Consider B11, for which the binding signal is 0.07 KA relative to UGCAUGU.

Regarding B12, the binding signal was 0.0909 KA relative to UGCAUGU.

B13: the binding signal is 0.142 KA relative to UGCAUGU.

Take B14: the binding signal was 0.118 KA relative to UGCAUGU.

As to B15, the binding signal is 0.0516 KA relative to UGCAUGU.

Consider B16, for which the binding signal is 0.11 KA relative to UGCAUGU.

As for B17, the binding signal is 0.117 KA relative to UGCAUGU.

Take B18: the binding signal was 0.0829 KA relative to UGCAUGU.

Take B19: the binding signal is 0.0774 KA relative to UGCAUGU.

As to B20, the binding signal was 0.0566 KA relative to UGCAUGU.

On to B21, for which the binding signal was 0.0744 KA relative to UGCAUGU.

In the case of B22, the binding signal is 0.113 KA relative to UGCAUGU.

As to B23, the binding signal is 0.132 KA relative to UGCAUGU.

In the case of B24, the binding signal was 0.224 KA relative to UGCAUGU.

B25: the binding signal is 0.128 KA relative to UGCAUGU.

In the case of B26, the binding signal was 0.0649 KA relative to UGCAUGU.

For the molecule B27, the binding signal is 0.0962 KA relative to UGCAUGU.

B28: the binding signal is 0.119 KA relative to UGCAUGU.

Turning to B29, the binding signal was 0.109 KA relative to UGCAUGU.

Take B30: the binding signal is 0.0741 KA relative to UGCAUGU.

For the molecule B31, the binding signal was 0.0591 KA relative to UGCAUGU.
